In all, about 110,000 compounds were measured (“z-score”: median about -0.1, highest 2% from about 2 on). This is one part of the list. The source made the active and inactive calls.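 Rule for the calls: active = z-score in the third read window above 3 or below -3; inactive = the rest.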

The source of these data is PubChem BioAssay AID488969 (Vanderbilt High Throughput Screening Facility, 2010).

This assay has as its target Metabotropic glutamate receptor 8 (Rattus norvegicus) (UniProt P70579). The assay is described as follows: mGluR8 Gi/Go-coupled signaling modulation – cell-based, rat, thallium flux, HTS, primary screen (AID 488969). The conditions noted are these: HEK293 rat mGluR8, GIRK (G protein-gated inwardly rectifying potassium channel) thallium flux, FluoZin2; at 10 µM; stronger effect = higher value; submaximal glutamate (EC20) added with thallium.
UniProt P70579, sequence (P70579 whole entry, looked up): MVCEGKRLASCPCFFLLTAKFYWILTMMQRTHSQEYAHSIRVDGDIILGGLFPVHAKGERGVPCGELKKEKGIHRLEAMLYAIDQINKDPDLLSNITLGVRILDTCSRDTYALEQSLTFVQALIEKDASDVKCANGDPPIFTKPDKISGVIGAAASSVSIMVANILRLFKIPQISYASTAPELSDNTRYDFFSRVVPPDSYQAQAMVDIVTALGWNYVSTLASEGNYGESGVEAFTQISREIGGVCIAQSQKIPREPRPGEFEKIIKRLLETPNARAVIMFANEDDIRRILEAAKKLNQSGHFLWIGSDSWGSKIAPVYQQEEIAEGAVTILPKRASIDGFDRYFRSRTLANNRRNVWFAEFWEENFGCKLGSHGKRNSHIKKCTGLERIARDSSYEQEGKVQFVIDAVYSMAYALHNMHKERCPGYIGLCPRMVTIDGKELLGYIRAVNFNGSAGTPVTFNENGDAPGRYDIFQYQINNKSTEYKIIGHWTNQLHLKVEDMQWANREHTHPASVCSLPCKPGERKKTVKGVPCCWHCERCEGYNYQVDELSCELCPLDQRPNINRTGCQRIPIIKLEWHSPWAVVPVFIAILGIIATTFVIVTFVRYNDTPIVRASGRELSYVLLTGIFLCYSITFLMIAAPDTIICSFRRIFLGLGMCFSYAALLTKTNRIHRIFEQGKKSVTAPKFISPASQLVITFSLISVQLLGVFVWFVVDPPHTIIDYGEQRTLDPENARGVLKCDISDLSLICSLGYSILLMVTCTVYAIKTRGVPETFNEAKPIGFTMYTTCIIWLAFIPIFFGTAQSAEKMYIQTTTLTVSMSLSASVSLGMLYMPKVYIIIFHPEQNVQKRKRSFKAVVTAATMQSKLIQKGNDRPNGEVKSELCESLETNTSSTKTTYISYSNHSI
`O=C(NC1(C(F)(F)F)C(=O)Nc2c1c(=O)[nH]c(=O)n2Cc1ccccc1)c1ccco1` (centres undefined) gave a z-score of 0.311.
`Cc1c(NC(=S)N/N=C/c2ccc(O)cc2)c(=O)n(-c2ccccc2)n1C`: the z-score is -0.645.
Regarding `COc1ccc(OC)c(C(=O)/C=C/c2ccccc2C(F)(F)F)c1`, the z-score is -0.398.
`CC(NC(=O)NC12CC3CC(CC(C3)C1)C2)C1CCCO1` (centres undefined) yielded a z-score of 0.288.
`COc1ccc(CC(=O)Nc2nncs2)cc1OC`: the z-score was 0.63.
With `COC(=O)c1ccc(Oc2coc3cc(OCc4ccc([N+](=O)[O-])cc4)ccc3c2=O)cc1`, the z-score is -0.193.
`O=C(NCc1cccc(C(F)(F)F)c1)C1CC(c2ccccc2[N+](=O)[O-])=NO1` (centres undefined) yielded a z-score of -0.278.
To `O=C(COC(=O)CCc1ccc(S(=O)(=O)N2CCOCC2)cc1)Nc1ccc(Cl)cn1` belongs -1.8; to `CCOC(=O)c1ccc(NC(=O)NC(C)C2CCCO2)cc1` (centres undefined), 1.07.
`COC(=O)c1ccccc1NC(=O)CSc1nnc(COc2cccc(OC)c2)n1C`: the z-score was -0.936.
For `COc1ccc(C(=O)n2nc(C)c(Br)c2C)cc1`, the z-score came to 0.201.
To `CC(C)CN1C(=S)SC(C)(C)C1n1oc(=O)n(-c2ccc(Cl)cc2)c1=O` (centres undefined) belongs -0.00187.
On to `COc1ccc(OCC(=O)Nc2cc(-c3nn4c(C)nnc4s3)ccc2C)cc1`, for which the z-score amounted to 0.131.
For the compound `COc1ccc(NC(=S)NCCCn2ccnc2)cc1`, the z-score stood at 0.26.
The value for `CC(=O)Nc1nnc(SCC(=O)NC(C)(C)C)s1` was 1.38.
In the case of `CC(C)CNC(=O)c1cccc(NC(=O)c2ccc(Cl)c([N+](=O)[O-])c2)c1`, the z-score was -0.478.
`Cn1c(CN2CCOCC2)nnc1SCC(=O)Nc1ccc2c(c1)OCCO2` gave a z-score of -0.0895.
The compound `O=C1NC(c2ccccc2)C(C(=O)c2cccs2)C(O)(C(F)(F)F)N1` (centres undefined) showed a z-score of -0.23.
For the compound `CC1=NN(C(=O)c2ccccc2-n2cccc2)C(O)(C(F)(F)F)C1` (centres undefined), the z-score was -0.142.
In turn, `Cc1sc(NC(=O)/C=C/C(=O)O)c(C(N)=O)c1-c1ccc(C(C)(C)C)cc1` registered a z-score of -0.897.
The value for `COC(=O)C1C2CCC(C2)C1C(=O)OCC(=O)c1ccccc1` (centres undefined) was 0.411.
Compound `Cc1ccc(C(=O)N/C(=C\c2ccc(F)cc2)C(=O)NCc2ccncc2)cc1` returned a z-score of -0.00567.
In the case of `CC1CCc2cc(F)ccc2N1C(=O)c1cnc2sccn2c1=O` (centres undefined), the z-score stood at 0.115.
Consider `NC(=O)CSc1nnc(C2CC2)n1-c1ccccc1`, for which the z-score was -0.0176.
`Cc1cc(C)nc(SCC(=O)Oc2ccc3oc(=O)cc(C)c3c2)n1` gave a z-score of 0.377.
On to `CC(C)COc1ccc(CSCCNC(=S)Nc2ccccc2)cc1`, for which the z-score worked out at 0.518.
`CCOc1cc(CO)ccc1OCC(=O)N1CCCCC1` had a z-score of 0.0126.
With `C=CCn1c(SCC(=O)N2CCCC2)nc2scc(-c3cccs3)c2c1=O`, the z-score was -0.554.
As for `Cc1nn(C)c(C(=O)Nc2ccc(Cn3cccn3)cc2)c1[N+](=O)[O-]`, the z-score was -0.0807.
With `COCC(=O)N1CCN(c2ccc([N+](=O)[O-])cc2)CC1`, the z-score is -0.196.
As to `CCOC(=O)C1=C(CC)Nc2ccccc2N=C1NC(=O)c1cc(S(=O)(=O)N(C)C)ccc1Cl`, the z-score turned out to be 0.243.
The value for `Cc1nc(C)c(C(=O)C2=C(O)C(=O)N(CCN(C)C)C2c2cccs2)s1` (centres undefined) was -0.163; that for `NC(=O)CSc1nnc(-c2cc3ccccc3o2)n1Cc1ccccc1` was -0.657; that for `CC1=C(C(=O)Nc2ccccc2)C(c2coc3ccccc3c2=O)C2=C(CCCC2=O)N1` (centres undefined) was -0.381.
As to `Cc1cc(=O)n2[nH]c(-c3cccnc3)nc2n1`, the z-score is -0.133.
`O=C(c1ccccc1)n1nnc2ccccc21` displayed a z-score of -0.0507.
Compound `Cc1ccccc1Cc1c(C)nc2nc(SCC(=O)NCc3ccco3)nn2c1C` gave a z-score of 0.394.
As to `CCOC(=O)CN(C(=O)Cn1nnc(-c2ccc(OC)cc2)n1)C(C(=O)NC1CCCC1)c1ccc(F)cc1` (centres undefined), the z-score turned out to be 0.146.
To `COCCNC(=O)/C(C#N)=C/c1c(N2CC(C)OC(C)C2)nc2ccccn2c1=O` (centres undefined) belongs -0.347; to `CN(CCOC(=O)c1ccc2c(c1)OCCO2)Cc1ccccc1`, -0.00693.
On to `COc1ccc(-c2ccc(=O)n(CC(=O)Nc3nnc(C(C)C)s3)n2)cc1OC`, for which the z-score is 0.204.
The value for `CCOC(=O)c1cnc2c(C)c(Cl)ccc2c1Nc1ccc(S(=O)(=O)Nc2ncccn2)cc1` was active: 9.28; that for `Cc1cccc(N2CCc3c2nc2ccc(Br)cc2c3N)c1` was -0.484.
`Cc1ccc(S(=O)(=O)N(CC(=O)NCCSc2ccccn2)c2cc(C)cc(C)c2)cc1` showed a z-score of -0.756.
As for `Cc1cccc(NC(=S)N2CCCCC2)c1`, the z-score is -0.264.
The value for `O=C(NCCc1ccc(Cl)cc1)C1CCN(S(=O)(=O)N2CCCCC2)CC1` was 0.286.
Take `COC(=O)Cc1ccc(OCC(=O)Nc2ccc(OC(F)(F)F)cc2)cc1`: the z-score was -0.392.
To `Cc1c(C)n(C(=O)CSc2nncn2C)c2ccccc12` belongs -0.347; to `O=C(O)CSc1ncnc2c1oc1ccccc12`, -0.235.
As for `Cc1ccc[n+](-c2nc3ccccc3nc2C(=C=[N-])C#N)c1`, the z-score was 0.113.
Consider `Cc1ccc(CC(=O)Nc2ccc(OC(F)F)c(Cl)c2)cc1C`, for which the z-score amounted to 0.257.
Compound `Cc1nc(-c2coc3c(CN(C)C)c(O)ccc3c2=O)cs1` returned a z-score of -0.0726.
In the case of `O=C(CCC1CCCCC1)NNC(=O)c1cnccn1`, the z-score is -0.0464.
Consider `Cc1cccc(N(CC(=O)NCCSc2ccccn2)S(=O)(=O)c2ccccc2)c1`, for which the z-score is -0.4.
The compound `Cc1ccc(S(=O)(=O)N(C)c2ccc(N)cc2)cc1` had a z-score of -0.0845.
`CCOC(=O)c1nn(-c2ccccc2C)c(=O)c(C#N)c1C` showed a z-score of 0.836.
Take `COc1ccc2occ(C(=O)c3cccs3)c2c1`: the z-score turned out to be 0.191.
As for `Cc1ccnc(NS(=O)(=O)c2ccc(NS(=O)(=O)c3cccs3)cc2)n1`, the z-score came out at 0.185.
To `Cc1ccc(Nc2nc(=O)[nH]nc2C)cc1` belongs 0.154; to `Cc1ccc(-c2c(C)sc(NC(=O)C3C4CCC(O4)C3C(=O)O)c2C(=O)OC(C)C)cc1` (centres undefined), active: 4.99; to `c1ccc2c(N3CCOCC3)nc(-c3ccncc3)nc2c1`, -0.255.
To `CCCCOc1ccc(CSC(=N)N)cc1[N+](=O)[O-]` belongs 0.219.
In turn, `COCCCNC(=O)/C=C/c1ccc(Cl)cc1` showed a z-score of 0.484.
`CCOc1cc(CNCc2cccs2)cc(Br)c1OC`: the z-score is -0.659.
As for `CN(C)S(=O)(=O)c1cccc(NC(=O)c2cc(-c3cccs3)nn2-c2ccccc2)c1`, the z-score was -0.154.
`CCCCCOc1ccccc1C(=O)NCCC(=O)O` returned a z-score of -0.55.
In the case of `C/C(=N\Nc1nc2ccccc2[nH]1)c1cc2ccccc2o1`, the z-score is -0.627.
Compound `COc1ccc(C(=O)Nc2cc3c(cc2OC)CCCC3)cc1Br` returned a z-score of 1.25.
As to `NS(=O)(=O)c1ccc(CCNC(=O)c2cc(-c3ccccc3)nc3ccccc23)cc1`, the z-score is -0.269.
Compound `O=C(CNC(=O)C1CCCCC1)OCc1cc(=O)oc2ccc3ccccc3c12` had a z-score of -0.238.
In turn, `Cc1cc(NC(=O)CCC(=O)N(CC(=O)NC2CCCC2)Cc2ccco2)no1` registered a z-score of -0.265.
`COc1ccc(CNC(=O)/C=C/c2ccc(OCCCF)cc2)cc1OC`: the z-score was found to be 0.346.
The value for `CC(=O)N1CCN(c2ccc(NC(=S)NC(=O)c3ccccc3)cc2)CC1` was -0.0246.
`COc1cccc(C2NC(=O)NC(C)=C2C(=O)Nc2ccc(C)cc2)c1` (centres undefined) yielded a z-score of -0.932.
On to `COc1ccccc1CNC(=O)C(C)NS(=O)(=O)c1ccc(Br)cc1` (centres undefined), for which the z-score was -0.542.
The value for `Cc1c(C(=O)NCCSCc2ccco2)cccc1[N+](=O)[O-]` was -0.046; that for `CCSc1nnc(NC(=O)NC(CC)(C(F)(F)F)C(F)(F)F)s1` was active: 3.86; that for `Cc1cc(C)c(C#N)c(SCc2nc3ccccc3[nH]2)n1` was -0.243.
`CCCCC(=O)Nc1ccc2c(c1)nc1n2CCSC1`: the z-score came to 0.107.
For the compound `CCOc1cc(NC(=O)C2CC2)c(OCC)cc1NC(=O)CCn1nnc2ccccc21`, the z-score is -0.203.
Take `O=C(Nc1nccs1)c1ccc(Br)c(S(=O)(=O)N2CCOCC2)c1`: the z-score amounted to 0.708.
The compound `O=C(O)Cn1cc(C(=O)c2cccs2)c2ccccc21` registered a z-score of -0.354.
In the case of `Nc1nc(CSC(=S)N2CCOCC2)nc(Nc2ccc(F)cc2)n1`, the z-score was -0.0752.
The value for `COc1ccc(-c2nc(NC(=O)c3ccccc3)sc2-c2ccc([N+](=O)[O-])cc2)cc1` was 0.0348.
Compound `O=c1oc2ccccc2c(O)c1/C=C1\C=Nc2ccccc21` yielded a z-score of -1.73.
On to `CCOC(=O)c1c(NC(=O)C2COc3ccccc3O2)sc2c1CCN(Cc1ccccc1)C2` (centres undefined), for which the z-score is -0.107.
The value for `CC(=O)Nc1ccc(-c2nnc(SCc3ccc(C)cc3)n2C)cc1` was -0.258.
Compound `CN(CC(=O)Nc1ccc(N2CCOCC2)cc1)CC(=O)Nc1ccc(Cl)cc1[N+](=O)[O-]` registered a z-score of 0.0212.
To `COc1cc(NC(=S)Nc2cccnc2)cc(OC)c1` belongs 0.0987; to `Nc1nonc1-n1nnc(C(=O)O)c1-c1cccs1`, 0.729.
Compound `Cc1cc(=O)oc(C)c1C(=O)Nc1ccc(Cl)cn1` had a z-score of -0.372.
As to `COc1cc(-c2noc(CCC(N)=O)n2)cc(OC)c1OC`, the z-score came to 1.39.
Regarding `O=C(NNC(=S)NC(=O)c1ccccc1[N+](=O)[O-])c1ccccc1[N+](=O)[O-]`, the z-score amounted to 0.132.
The value for `O=S(=O)(N1CCOCC1)N1CCN(c2ccccc2F)CC1` was 0.83; that for `COC(=O)COc1ccc(S(=O)(=O)Nc2cc(OC)ccc2OC)cc1` was -0.514.
Compound `Cc1ccc(C(=O)O/N=C(\N)c2cccc([N+](=O)[O-])c2)cc1` had a z-score of -0.373.
`COc1ccccc1/C=C/C=N/NC(=O)c1ccncc1` returned a z-score of -1.63.
In turn, `Cc1ccccc1CSc1nc2c(c(=O)[nH]1)CCCC2` had a z-score of -1.22.
In turn, `COc1ccc(-c2nsc(SCC(=O)Nc3ccc4c(c3)OCO4)n2)cc1` registered a z-score of -0.142.
`Cc1ccccc1C(=O)NNc1ccc([N+](=O)[O-])cc1` had a z-score of 0.0562.
In the case of `Cc1ccccc1NC(=O)/C(C#N)=C\c1cccnc1`, the z-score was -0.183.
`Cc1ccc(CNc2ccc(N3C(=O)CCCC3=O)cc2[N+](=O)[O-])cc1` gave a z-score of -0.0934.
`NC(=O)C1(N2CCCCC2)CCN(Cc2nc3ccccc3c(=O)[nH]2)CC1` showed a z-score of -0.141.
On to `O=C(NNS(=O)(=O)c1ccccc1F)c1cccc(S(=O)(=O)N2CCOCC2)c1`, for which the z-score is active: 10.4.
With `Cc1ccc(S(=O)(=O)N2CCC(C(=O)NCCc3ccc(S(N)(=O)=O)cc3)CC2)cc1`, the z-score was -0.322.
The compound `CCOc1cc2c3c(c1)C1(C(=O)N3C(C)(C)C=C2C)C(C#N)=C(N)Oc2cc(O)ccc21` (centres undefined) yielded a z-score of 0.542.
In turn, `O=C(O)CC(NC(=O)OCc1ccccc1)c1ccc(Br)cc1` (centres undefined) gave a z-score of -0.28.
The value for `Nc1cc(Cl)c(N)cc1Cl` was 0.222.
Compound `COCCNC(=O)C(c1ccc(C)o1)N(C(=O)c1snc(C(N)=O)c1N)c1ccc(C)c(C)c1` (centres undefined) had a z-score of -0.119.
